Measured values taken from the supplement of paper PMC6531468.
This is one part of the list. These are enrichments in a pooled selection; single values are uncertain. Scores sum up all selected molecules that hold the word; the word was not tested alone.

Assays:
Test in all cases: 6-mer SELEX enrichment z-score vs GST control; IMP3 is the RNA-binding protein IGF2BP3; higher = more enriched by binding
IMP3 KH1-4 = details: construct: KH1-4 (164-579); SELEX round: R4
Protocol: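 SELEX-seq with GST-tagged IMP3 KH1-4 (Pro164-Lys579) and an N40 RNA pool, round 4. 6-mer z-score of sequence-tag enrichment normalised to the corresponding GST SELEX round; RNA k-mers written as DNA (T for U).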

IMP3 full-length = IMP3 full-length (UniProt O00425); details: construct: FL IMP3 (1-579); SELEX round: R4
Protocol: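 SELEX-seq with GST-tagged full-length IMP3 and an N40 RNA pool, round 4. Each 6-mer is scored as an enrichment z-score of sequence tags containing it, normalised to the matching GST SELEX round. RNA written as DNA (T = U).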

IMP3 KH1-2 = details: construct: KH1-2 (164-376); SELEX round: R4
Protocol: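 SELEX-seq with GST-tagged IMP3 KH1-2 (Pro164-Phe376) and an N40 RNA pool, round 4 (stringent 300/600 mM KCl washes). 6-mer z-score of sequence-tag enrichment normalised to the corresponding GST SELEX round; RNA k-mers written as DNA (T for U).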

IMP3 KH3-4 = details: construct: KH3-4 (377-579); SELEX round: R4
Protocol: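 SELEX-seq with GST-tagged IMP3 KH3-4 (Pro377-Lys579) and an N40 RNA pool, round 4. 6-mer z-score of sequence-tag enrichment normalised to the corresponding GST SELEX round; RNA k-mers written as DNA (T for U).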

Chain of UniProt O00425 (O00425 whole entry): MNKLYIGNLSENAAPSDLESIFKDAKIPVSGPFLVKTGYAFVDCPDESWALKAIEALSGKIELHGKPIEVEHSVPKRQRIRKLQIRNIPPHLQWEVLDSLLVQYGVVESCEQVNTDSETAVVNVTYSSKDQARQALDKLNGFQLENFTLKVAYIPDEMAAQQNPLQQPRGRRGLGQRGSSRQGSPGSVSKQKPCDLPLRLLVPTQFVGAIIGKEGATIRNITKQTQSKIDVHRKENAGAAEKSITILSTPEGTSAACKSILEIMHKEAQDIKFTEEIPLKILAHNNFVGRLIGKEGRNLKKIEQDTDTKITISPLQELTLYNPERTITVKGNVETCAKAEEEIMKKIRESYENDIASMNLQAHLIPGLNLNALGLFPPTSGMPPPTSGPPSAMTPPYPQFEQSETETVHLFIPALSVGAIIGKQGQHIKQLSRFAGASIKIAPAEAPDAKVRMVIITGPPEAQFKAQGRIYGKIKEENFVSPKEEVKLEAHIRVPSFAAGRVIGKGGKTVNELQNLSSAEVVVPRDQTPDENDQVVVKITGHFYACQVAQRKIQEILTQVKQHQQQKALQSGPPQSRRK
Chain of IMP3 KH3-4 (chain, as listed by the source): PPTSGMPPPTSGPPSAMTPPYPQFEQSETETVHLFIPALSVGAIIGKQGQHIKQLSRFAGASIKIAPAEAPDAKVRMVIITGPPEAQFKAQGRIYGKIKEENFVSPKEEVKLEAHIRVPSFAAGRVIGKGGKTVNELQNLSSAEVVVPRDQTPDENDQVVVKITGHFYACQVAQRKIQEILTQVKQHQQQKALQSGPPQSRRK
Chain of IMP3 KH1-4 (chain, as listed by the source): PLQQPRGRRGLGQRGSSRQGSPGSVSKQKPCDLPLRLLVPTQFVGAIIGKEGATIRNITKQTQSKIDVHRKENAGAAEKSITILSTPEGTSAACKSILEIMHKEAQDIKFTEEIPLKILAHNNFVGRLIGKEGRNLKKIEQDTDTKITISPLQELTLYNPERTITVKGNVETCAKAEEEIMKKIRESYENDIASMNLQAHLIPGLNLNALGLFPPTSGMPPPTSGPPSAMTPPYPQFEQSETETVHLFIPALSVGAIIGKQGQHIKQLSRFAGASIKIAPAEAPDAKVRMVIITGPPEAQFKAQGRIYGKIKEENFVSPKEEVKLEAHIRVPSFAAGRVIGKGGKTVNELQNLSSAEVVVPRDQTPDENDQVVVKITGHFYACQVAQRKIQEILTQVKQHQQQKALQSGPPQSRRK
Chain of IMP3 KH1-2 (chain, as listed by the source): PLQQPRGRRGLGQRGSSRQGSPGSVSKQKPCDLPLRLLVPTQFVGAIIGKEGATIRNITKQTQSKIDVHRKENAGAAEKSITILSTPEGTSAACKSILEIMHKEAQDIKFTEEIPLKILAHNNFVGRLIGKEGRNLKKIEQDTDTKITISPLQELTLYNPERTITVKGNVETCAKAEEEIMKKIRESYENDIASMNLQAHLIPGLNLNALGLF

Row | Sequence | 6-mer SELEX enrichment z-score (IMP3 KH1-4) | 6-mer SELEX enrichment z-score (IMP3 full-length) | 6-mer SELEX enrichment z-score (IMP3 KH1-2) | 6-mer SELEX enrichment z-score (IMP3 KH3-4)
1 | GCCAGG | 0.343 | 0.671 | 0.314 | 0.187
2 | AGCACA | 0.903 | 2.14 | 0.856 | 0.4
3 | GGTAAT | 0.197 | 0.042 |  | 0.488
4 | GGAACC | -1.22 | -0.788 | -1.21 | -1.46
5 | ACAACA | 1.82 | 3.17 |  | 1.48
6 | ATTAAA | 1.55 | -0.247 |  | 3.12
7 | TTAGTC | 0.355 | 0.208 | 0.204 | 0.355
8 | ATAGCC | -0.045 | -0.195 |  | -0.099
9 | AATGTT | 0.464 | -0.324 | 0.118 | 0.545
10 | AGTGCG | -0.045 | 0.222 | -0.107 | 0.067
11 | CAAAAA | -2.28 | -3.21 |  | -1.51
12 | CCAATC | -0.812 | -0.218 | -0.798 | -1.39
13 | CCTCTT | 0.11 | -0.191 | 0.118 | -0.058
14 | CTTTCG | -0.199 | -0.141 | -0.184 | -0.126
15 | AGGCGA | -0.063 | 0.568 |  | 0.23
16 | CCCCGC | -0.388 | -0.198 | 0.076 | -1.11
17 | GTCAGA | -0.084 | 0.241 | -0.12 | -0.067
18 | CTTAGA | -0.126 | -0.368 | -0.196 | 0.094
19 | CACGTA | -0.329 | 0.02 | -0.438 | -0.447
20 | TAAAGA | 0.424 | -0.985 |  | 1.4
21 | GAATTA | 1.09 | -0.312 | 0.824 | 1.9
22 | TGATGG | 0.815 | 0.06 | 0.538 | 0.852
23 | CAAGGT | -0.376 | -0.014 |  | -0.251
24 | CATGCA | 1.64 | 1.97 |  | 0.852
25 | CGGTCT | -0.112 |  | -0.081 | 0.035
26 | TTGCGA | -0.745 |  | -0.671 | -0.512
